Test results reported in PubChem BioAssay (NCI).
“And” between values parts separate entries of the source, which are not always exact repeats. Identical values can stand only once.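 A five-concentration, 48-hour dose response in 96-well plates underlies each endpoint, interpolated linearly between surrounding concentrations. Abbreviation: GI50, concentration required for 50% inhibition of growth. TGI is the concentration that stops growth completely.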

Test system: NCI-H322M lung
Experiment: inhibition of tumour cell growth, NCI panel, 48 h

Row | Structure (SMILES) | TGI [nM] | GI50
1 | O=S(O)CCCCSSCc1ccccc1CSSCCCCS(=O)O | > 100000 | –
2 | O=C(Nc1cccc(Cl)c1)c1cc2ccccc2cc1O | > 100000 | 2830 nM and 2410 nM
